# Measured values reported in PubChem BioAssay (NCI).
#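 These data come from cells grown in 96-well plates and exposed to compound for 48 hours at five concentrations. Abbreviation: GI50, concentration required for 50% inhibition of growth. TGI marks complete inhibition of growth.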
# System: NCI-H322M lung
# Assay: DTP human tumour cell line panel, 48 h
Compound,TGI,GI50
Cn1c(=O)c2c(nc3n2CCCC(=O)N3CC(O)CCl)n(C)c1=O (stereo not drawn),> 100 µM,
C[C@]12CC/C(=N\O)C=C1CC[C@@H]1C2CC[C@@]2(C)C1CC[C@@H]2OC1CCCCO1 (stereo partly drawn),> 100 µM,
C=C(CCC/C(C)=C/C=C/[C@@H](C)CCCc1ccoc1)C[C@@H]1OC(=O)[C@H](C)[C@@H]1O,14.2 µM,
Cc1cc(/C=C/c2cc[n+](C)c3ccccc23)c(O)c2ncccc12,11.5 µM,
Cc1c(N2CCN(C)CC2)nc2ccc(Cl)cc2c1-c1ccccc1,29 µM,
Clc1ccc(-c2c3c(nn2-c2ccccn2)CCc2ccccc2-3)cc1Cl,> 100 µM,> 100 µM
CC(=O)OCC1OC(Nn2c(=O)[nH]c3ccccc3c2=O)C(OC(C)=O)C(OC(C)=O)C1OC(C)=O (stereo not drawn),> 100 µM,
O=c1ccn(COC(COCc2ccccc2)COCc2ccccc2)c(=O)[nH]1,> 100 µM,
COCc1cc(C(=O)Nc2cc([C@H]3CC[C@@H](OC(=O)NC(C)C)C3)[nH]n2)n(C)n1,74 µM,5.35 µM
CCCCCCCCCCCCCCCCCCNC(=S)/N=C\C1=C(O)c2ccccc2C1=O,21.4 µM,
O=C(NCCCO)c1cc(Cl)ccc1O,30.6 µM,6.45 µM
O=C1CSC(c2ccccc2[N+](=O)[O-])N1c1ccc(-c2ccc(-n3c(-c4ccccc4)nc4ccccc4c3=O)cc2)cc1 (stereo not drawn),> 100 µM,
COC1CC(COCc2ccccc2)CC(OC)O1 (stereo not drawn),> 100 µM,
O=C(O)CCC(N=Cc1nc(-c2ccccc2)oc1O)C(=O)O (stereo not drawn),> 100 µM,
CS(=O)(=O)CCc1cccc(C(=O)c2cnn(-c3ccc(F)cc3)c2N)c1,> 25 µM,> 25 µM
O=C(Cc1ccc(F)c(F)c1)Nc1cc(C2(C(F)(F)F)CC2)nn1Cc1ccccc1,> 15 µM,3.75 µM
COc1ccccc1C1ON=C(c2ccc([N+](=O)[O-])cc2)N1C12CC3CC(CC(C3)C1)C2 (stereo not drawn),> 100 µM,
CCC(=C/[C@H](C)C/C=C/C(C)=C/[C@@H](C)C(=O)[C@@H](C)[C@H](O)[C@@H](C)CC)/C=C/[C@@H]1OC(=O)C=C[C@H]1C,3.01 µM,< 0.01 µM
O=C1C(=O)N(c2cccc(C(F)(F)F)c2)C(=S)N1c1ccccc1,> 100 µM,
CN1C(=O)C2C3C=C4c5ccccc5N(c5ccccc5)C4(C2C1=O)[C@H]1C(=O)N(C)C(=O)[C@@H]31 (stereo partly drawn),> 100 µM,
CSc1nc(NC2OC(COC(C)=O)C(OC(C)=O)C(OC(C)=O)C2OC(C)=O)c2c(n1)OCC2=O (stereo not drawn),> 100 µM,
CC1=C(O)C(=O)C2C(=O)C1C1Cc3ccccc3C21 (stereo not drawn),> 100 µM,
CC1CCCC(C(O)CC2CC(=O)NC(=O)C2)C1O (stereo not drawn),> 100 µM,
COC(=O)C(C(=O)C(=O)Nc1ccc([N+](=O)[O-])cc1[N+](=O)[O-])c1nc2ccc(Cl)cc2[nH]c1=O (stereo not drawn),> 100 µM,

Compound,TGI,GI50
CNC(=O)c1ccccc1Nc1nc(Nc2cc(OC)c(OC)c(OC)c2)ncc1Br,1.8 µM,0.0317 µM
CC(=O)C1=C(O)C=C2Oc3c(C(=O)/C=C/c4c(Cl)cccc4Cl)c(O)c(C)c(O)c3[C@]2(C)C1=O,5.4 µM,0.938 µM
CC(C)N=C(N)NC#N,> 100 µM,
CCOC(=O)c1cc2c(cc1Cl)SC(N(c1ccc(OC)cc1)S(=O)(=O)c1ccc(Cl)cc1)=NS2(=O)=O,> 100 µM,> 100 µM
CC1(C)Cc2nc3c(cc2C(=O)C1C=N/C(C#N)=C(\N)C#N)C(=O)C(C=N/C(C#N)=C(\N)C#N)C(C)(C)C3 (stereo not drawn),9.79 µM,
CCN(CC)c1ccc(C(O)C2=CC(=O)c3ccccc3C2=O)cc1 (stereo not drawn),8.06 µM,2.63 µM
N=c1ccn(O)cc1/C=C1/C(=O)Nc2ccccc21,> 100 µM,> 100 µM
Cc1nc2ccccc2c(/C=C/c2ccc(Cl)cc2)c1C(=O)/C=C/c1ccc(C(F)(F)F)cc1,2.69 µM,1.38 µM
COC(=O)c1ccc(N=NN(C)COc2ccc(Br)cc2)cc1,> 100 µM,
Cc1cc(Cc2cc(C)c(NC(=O)C(=O)C3CCC4=C(SC5C=CC=CC5N4)C3=O)c(C(C)C)c2)cc(C(C)C)c1NC(=O)C(=O)C1CCC2=C(SC3C=CC=CC3N2)C1=O (stereo not drawn),> 100 µM,
CC(C)NC(=O)OCc1c(CO)c2c(n1C)-c1ccccc1CC2,> 100 µM,
Cc1ccc(O)c(C2=CC(c3cccc(Cl)c3)SC(N)=N2)c1 (stereo not drawn),> 100 µM,
O=c1c2cc3c(=O)n4c(cc(-c5ccccc5)c5cc(Cl)ccc54)nc3cc2nc2cc(-c3ccccc3)c3cc(Cl)ccc3n12,> 100 µM,
COc1ccc2ccccc2c1C1NC(=O)c2ccccc2N1 (stereo not drawn),> 100 µM,
NCCCC[C@H](N)C(=O)Nc1ccc(-c2nc3ccccc3s2)cc1,73.6 µM,
COC(=O)c1cc(C(=CCC[C@H]2CC[C@@]3(C)C(CCC4C3CC[C@@]3(C)C4CC[C@@H]3C(C)CCCC(C)C)C2)c2cc(Cl)c(O)c(C(=O)OC)c2)cc(Cl)c1O (stereo partly drawn),> 10 µM,
COC(O)C(=O)c1ccc2c(c1)CC1(C2)Cc2cc3c(cc2C1=O)CCC3 (stereo not drawn),34.6 µM,
COc1cc(C2SCC(=O)N2c2ncc(C)s2)cc(OC)c1OC (stereo not drawn),> 50 µM,33.2 µM
C[n+]1c2cc(N)ccc2cc2ccc(N)cc21,8.75 µM [middle of 4 runs],1.59 µM [middle of 4 runs]
CCOC(=O)c1cc2/c(=C\c3ccc(N(C)C)cc3)c3ccccc3n2[n+]1C,15 µM,
Cn1c2c(c3ccc([N+](=O)[O-])cc3c1=O)C(=O)c1ccccc1-2,> 100 µM,> 100 µM
C/C(=N\NS(=O)(=O)c1ccc(C)cc1)P(=O)(O)O,> 100 µM,
CS(=O)(=O)c1ccc(N=C/C=C/Nc2ccc(S(C)(=O)=O)cc2)cc1,> 100 µM,
CN(C)CCn1c(=O)c2ccc(NCCN3CCNCC3)c3c(=O)c4ccccc4n(c1=O)c23,21.4 µM,
